Data on 167 variants can be found in the RNAGym collection of RNA variant scans (doi:10.7554/elife.90254).

The source gives no read counts; variants with many changes may rest on few reads.

B1: LINE1-full (parent)
chain: UACGUAGGUGGUUUUCCCCUGAUAGUGCUAAGGGGGCCUGGAAGUUUGGACUGGGCAGAGCUCAACACAGCGUGGCAAAGUGGCUGUGGCUAGACUGCCUCUCUGGAUUCCUCGUCACUCAGCAGGGCAUCUCUGAGAGAAAUGCC

The variants in the data set derive from B1. Description: self-cleavage, relative activity (ratio to wild type); higher = more cleavage; in vitro, sequencing; the parent is a self-cleaving ribozyme.
With U5A A31U A107G C123U A124G, the self-cleavage came out at 0.42. As for A2G U91C U100C, the figure is 2.3; as for C3U U39A G55U A142U, 0.06; as for A2U U12A U13G U96C A138G, 0. Under C3U A69U A94G stands 0; under G4U A69U U130C, 0.19.

For G4A U39C U130C, the self-cleavage amounted to 1.31.

Take A2G U45C A129G: the self-cleavage is 0.73. Under A2U A31G U134C stands 1.12; under U5C A77G U81C, 0.37; under A2U A65U G105A, 0.06. Under C3U U13A G32U stands 1.08; under G4U U14A C128U, 0.75; under C3U U47A A69G G105A A138G, 0.72.

Consider U5C A42G C71U C90G U100C, for which the self-cleavage is 0. Take G4A G74A A79G: the self-cleavage was 0.83. Under G4A A129G A138C stands 0. As for A2U U104A C113U, the figure is 0.53. G4C U23C U108C U134A: the self-cleavage came to 1.06. As for U5A A31U A142G, the figure is 1.53; as for A2U A30G U87A, 0.16.

For U5A U14C U15C U26G U100A, the self-cleavage came out at 1.23. As for U5C A94G U100C, the figure is 0.84. As for U5C A43G A77G U85C U100C C111U A129U, the figure is 0.

Take U5C C19U G48A A57G U115A G127A: the self-cleavage turned out to be 0.69.

With U5A A124G A136U, the self-cleavage was 0.92. On to U5A U108A A129G, for which the self-cleavage is 0.77. As for A2U U5C C19G A77G, the figure is 1.84; as for C3U A6U A57G, 0.84. Under G4A U81G U87C U96A U102A A136U stands 0.32; under C3U C28U A31G, 1.2; under C3A U13C U39C U62A, 0.16. U5A G8A A57G A64G: the self-cleavage came to 0.51. Regarding G4A U45G G72A U81C, the self-cleavage was 0.48. Turning to U5C A50G U81A U112C A142U U143C, the self-cleavage came to 1.9.

Turning to C3U C76U A129G, the self-cleavage is 1.41.

Turning to C3G U9C U87A, the self-cleavage came out at 0.24. As to U5A A6G A65G, the self-cleavage was determined as 0.23.

As for C3A U47C U62A A77G, the self-cleavage is 0.38. As for G4A U62G A136U, the figure is 0.18; as for U5A U14C C56U U100C U104C, 0. Under A2U A43U U45C stands 0.35; under U5C A24U U29C U45A A94G A140G, 0.77; under A2G U109C A138G A140G, 1.41. Under A2U U13C G122A stands 0.54; under A2G U115A A141U, 0.81; under G4A U14C U15C C84U, 0.12. With U5A U62C U119C C120U, the self-cleavage turned out to be 0.03. Under A2G U45C A57G G139A stands 0.19; under U5A U9C U109A C120A, 0.56. As for A2G U46C A138U, the figure is 1.2. As for C3U U45A U108C U132C, the figure is 0.8. Turning to G4A G93A U143C, the self-cleavage amounted to 0.05.

For the variant A2G U100A U130A, the self-cleavage was 0.41. Under C3U U46C A92U stands 0.28; under A2U U20A U39C U108A, 0.8. Turning to A2U A6U U12C A77G, the self-cleavage was 0.71. On to C3U A31G G74A U132C U143A, for which the self-cleavage is 1.08. Regarding U5A U62C C90A, the self-cleavage was 0.04. On to U5A A67G U87A A121U A124G, for which the self-cleavage was 0.05. As for U5C A22U U47A, the figure is 0.91.

With C3U U9C U12G A92U U96C, the self-cleavage was 0. Turning to A2U A6G U14C G54A A67G U119C, the self-cleavage stood at 0.33.

Regarding U5C A67G U73C C116U U132C A141U, the self-cleavage was 0.21.

With C3U C98U U132C, the self-cleavage is 0.36. Under C3U U39C A121G stands 0.61; under G4A U15C U112C U134C, 1.08; under U5A U45A U81G, 0.64. As for A2U A77G A140G A141G, the figure is 2.97. Under G4A C118U U134C stands 1.19; under A2U A69G C128U, 0.55. As for U5C A6U U100C G126A, the self-cleavage stood at 1.1.

Take C3U U15A U39A U87G: the self-cleavage turned out to be 0.63. In the case of A2U U26C C103A, the self-cleavage was found to be 0.95. Under C3U A24G U91A A92G U119C A140G C146U stands 0. As for A2U A78G U115A, the figure is 1.16; as for G4A U15C A30G A79U, 1.15. Under U5C A77U U108C stands 1.12; under G4A A6C U29A U39C A141G, 0.93. With G4A U46C A140G, the self-cleavage was 0.82. A2G U47C U132C: the self-cleavage was 1.64. Under G4A U13C U14A stands 0.49. Under U5A C68U G126U C128U stands 0.21; under A2U A57G U91C A107G A138G, 0; under U5A U15A A24U A42U C51A U73A A141G, 0.55. As for A2G U62A A67C A138G, the figure is 0.16; as for U5C A78G U87C U96C A141G, 0; as for U5A G83A A140G, 0.64.

In the case of A2U U13A U47C C56G, the self-cleavage was found to be 0.17. Under U5C A69U U119C A124G stands 0; under U5C A79G A117U, 1.26; under G4A U46C A78G C90U G122U, 0.03.

For G4A G27U U52A A57C A77G C103U, the self-cleavage worked out at 0.06. As for C3U A50G C61G, the figure is 0.22. Under U5C A69U A107U stands 0.15; under G4A G10A U12C A57G, 0.14; under C3G U81C C113U, 1.03. As for U5A A64U A79C U143C, the self-cleavage was determined as 0.9. Under G4A U9C A64U A69G stands 0.29; under C3U U14A A107G, 0.89; under A2U U5C G21A U45C G54A A138G, 1.44. On to U5C C68U U85C, for which the self-cleavage was determined as 0.15. Consider G4A U45C A65G A117U, for which the self-cleavage was determined as 0.06. As to G4A U112C A124U, the self-cleavage worked out at 1.22. As for A2G U96C U119C A140G, the figure is 0; as for C3A U47C A67U, 0.11; as for G4A U23A A43G, 1.11.

As for G4U U14C A42G A43U A78G, the self-cleavage stood at 0.39. Under U5A U62C C99U stands 0.09; under A2G U45C U46C, 0; under C3U U12C U132A U134C A142C, 1.52. For U5C C38U A57G A69G U81A, the self-cleavage was determined as 0.48. As for G4A U109C A121G A124G, the figure is 2.04; as for U5C A30G U96C U100C A117U, 0.92. As for A2G U96C G114A, the figure is 0; as for U5C A57G U73C A129U A141G, 0; as for A2U U9A U13C A69G A94C U108A, 0.

Consider U5A U39C C61U U73C U112C A136G, for which the self-cleavage is 0.08.

Regarding A2U U26C A42G G54A U96C, the self-cleavage came to 0.08. Under G4A A43U U47C stands 1.23.

As to U5C A43G U91C G106U, the self-cleavage came out at 0.38. Under C3G U29C U102C stands 0.84. Under G4A U102C U112C stands 1.02; under C3U G40A U104A G137U, 0.95; under U5C A121U U130C, 1.47. Turning to C3U A30G U112A A129G A141G, the self-cleavage was 1.12.

As for C3U U12C A43G U109C A124G, the self-cleavage worked out at 0. In the case of A2G U52C A124G, the self-cleavage is 0.57.

Turning to C3U U115C U134A, the self-cleavage turned out to be 2.04. Under C3U G33A U52A stands 0.68; under C3U G4A U15C, 0.35; under C3U U91C U96C, 0.

For U5A U87A G89U, the self-cleavage worked out at 0.06. Under A2G U46C G75A stands 0.56. A2G U46C G75C: the self-cleavage turned out to be 0.6. Under C3U A24U A77G U130C stands 0.92; under C3U A65G U96C G97U U108C, 0.14. As for U5C A6G U73A, the figure is 0.58; as for A2U U13C U39A U130C, 0.66. Under U5C A24U U62C stands 0.48; under A2U U13G A22U U23C U47A C99U, 0.61. For the variant C3U A24G C37U U46C A50G A64G C99A A117U, the self-cleavage was determined as 0.13. As for U5C A30U A107G U108A, the figure is 0.68; as for U5C C68G U85C A107G, 0.09. As for A2U U23C A24U U100C A136G, the figure is 0.8; as for U5A U108C U115C, 1.08; as for C3G U14C U81C A124G, 0. For the variant C3U U26C U119A, the self-cleavage turned out to be 1.04. Under G4A C61U U104A stands 0.2; under G4A G32A G58A, 0.06. Under C3U U119C A124U C131A A140G stands 0.95. As for U5C A6G U47G U73A U102C C103A U115C, the figure is 1.31.

For the variant G4A A57C U115A A129U, the self-cleavage stood at 0.18. Under U5A U26C U87A U134C stands 0.18. Turning to A2G U46A U115C, the self-cleavage came out at 0.34. Under A2G U47C A92U stands 0.43; under C3U U20C U130C, 1.05. As to C3U U13A U46C U62C A64C G127C, the self-cleavage was found to be 0.35. As for U5C A50G A69U A141G, the figure is 0.25. Under A2G U87A U115C stands 0.

As for C3U A59U A69G A78U, the self-cleavage turned out to be 0.37. Under A2G U46C U73A stands 0.75; under A2G U52C G88A U143A, 0.12. In the case of U5A A31U A57U U81A, the self-cleavage is 0.24. As for U5C A77U U81A A138G, the figure is 1.64; as for C3U G49A U104C U115C, 1.1; as for G4A U26C A64C G114A, 0.26.
